Test results reported in PubChem BioAssay AID2675 (National Center for Advancing Translational Sciences (NCATS), 2010).
Out of some 280,000 compounds screened, about 100 (0.036%) were called active. The shares of active, inactive and inconclusive entries below differ from those in the screen. The call rests on the fitted dose curve; in most records, active means well fitted inhibition curve with a large enough effect in the signal ratio, with a control signal flat (not every such curve was filed as active); inconclusive means small, poorly fitted or top-dose-only effect, or effect the other way, or a change in a side signal; inactive means no such curve, though single readings can be large or run the other way; the % refers to the signal ratio. Potencies beside an inconclusive call are fits to weak or partial responses and may not hold up. “Side channel” marks fits to a control or component signal instead of the main read-out.

molecular target: Muscleblind-like protein 1 (Homo sapiens) (UniProt Q9NR56); test: qHTS Assay for Inhibitors of MBNL1-poly(CUG) RNA binding; conditions: TR-FRET MBNL1-His/biotin-(CUG)12 binding, 665/545 ratio; activity change, negative = inhibition: at 57.5 µM (top of the series)
Method in brief: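 His-tagged MBNL1 binding to biotinylated (CUG)12 RNA was measured by TR-FRET using terbium anti-His antibody (0.055 ng/ul final) and streptavidin-XL665 (5 nM final). Compounds were titrated 92 nM to 58 uM; 60 min at room temperature.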
On the % scale 0 is the no-effect control and ±100 the full control effect; potency means the concentration at half of the fitted maximal effect; tags describe the fitted curve by direction and shape or compound fluorescence and quenching.

Chain of UniProt Q9NR56 (Q9NR56 whole entry, looked up): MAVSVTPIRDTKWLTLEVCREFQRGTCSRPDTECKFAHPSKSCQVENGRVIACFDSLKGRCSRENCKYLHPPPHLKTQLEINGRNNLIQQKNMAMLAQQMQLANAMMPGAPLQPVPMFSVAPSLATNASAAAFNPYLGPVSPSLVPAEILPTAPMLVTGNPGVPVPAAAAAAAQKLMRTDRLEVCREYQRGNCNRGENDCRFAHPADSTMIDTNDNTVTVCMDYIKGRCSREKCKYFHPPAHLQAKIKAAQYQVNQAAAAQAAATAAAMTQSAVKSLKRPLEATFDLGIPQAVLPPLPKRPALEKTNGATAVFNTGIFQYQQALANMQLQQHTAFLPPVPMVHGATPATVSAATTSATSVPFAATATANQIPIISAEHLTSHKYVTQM

Structure (SMILES)	Potency	activity change, negative = inhibition
CC(C)(C)c1ccc(O)c(N=Cc2cc3c(cc2[N+](=O)[O-])OCO3)c1	inconclusive: 12.6 µM [quencher, side channel, partial curve]	–
O=C(c1cnc(N2CCN(c3ncccn3)CC2)c2ccccc12)N1CCN(c2ncccn2)CC1	–	inactive: -1.12%
COCCN(CCOC)C(=O)COC(=O)c1cc([N+](=O)[O-])ccc1Cl	inconclusive: 12.6 µM [quencher, side channel, partial curve]	–
Cc1cc(C(=O)OCC(=O)NCc2cccs2)c2ccccc2n1	inconclusive: 20 µM [quencher, side channel, partial curve]	–
CC(C)(C)NC(=O)COC(=O)/C=C/c1ccccc1[N+](=O)[O-]	inconclusive: 25.1 µM [quencher, side channel, partial curve]	–
CN1CCN(CC(=O)Nc2c(C(=O)c3ccccc3)oc3ccccc23)CC1	inconclusive: 14.1 µM [quencher, side channel, partial curve]	–
Cc1ccc(-n2c(-c3ccc(Br)cc3)c[n+]3c2CCc2ccc4cccnc4c2-3)cc1	–	inactive: 5.45%
Cc1ccc(S(=O)(=O)Nc2nnc(CC(C)(C)C)s2)cc1	–	inactive: -9.75%
C/C(=N\Nc1nc(C)cc(-c2ccccc2)n1)c1cccc(N)c1	–	inactive: 5.78%
COC(=O)c1nn(-c2ccccc2)c(=O)cc1Sc1ccc(Cl)cc1	inconclusive: 2.51 µM [quencher, side channel, full curve, poor fit]	–
COCCCNC(=S)NC1CC2CCCC(C1)N2Cc1cccs1 (centres undefined)	–	inactive: -19.5%
Cc1cc(NC(=O)CCN2C(=O)/C(=C\c3ccccc3Cl)SC2=S)no1	–	inactive: -3.96%
Cc1ccc2cc3c(N)c4c(C)ccc(C)c4nc3nc2c1	–	inactive: -3.38%
COc1ccc(OC)c(C(=O)NC(CC(N)=O)c2ccc(N3CCC(N4CCCCC4)CC3)c([N+](=O)[O-])c2)c1 (centres undefined)	inconclusive: 25.1 µM [quencher, single point]	–
Cn1c(SCC(=O)c2ccccc2)nnc1-c1ccc(O)cc1	–	inactive: -2.53%
COc1ccc(CNC(=O)Cc2cccs2)cc1OC	inconclusive: 0.794 µM [quencher, side channel, single point]	–
CCN1CCN(Cc2ccc(NC(=O)c3ccc(C)c(/C=C/c4cnc(Nc5cc(N6CCNCC6)nc(C)n5)cn4)c3)cc2C(F)(F)F)CC1	–	inactive: -2.08%
COc1cc2c(cc1NCc1ccc3c(c1)OCO3)oc1ccccc12	inconclusive: 3.55 µM [quencher, side channel, single point]	–
CCn1nc(C)c(CN2CCC(n3nccc3NC(=O)Cc3ccccc3)CC2)c1C	–	inactive: 1.86%
